Several values for one entry are separate records, joined by “and”; a condition that tells them apart may be missing. Identical values can stand only once. Hit rate of the full screen: of about 150,000 compounds, about 6,500 (4.3%) were called active. About 12% were inconclusive and are not listed. The call rests on the fitted dose curve; in most records, active means well fitted inhibition curve with a large enough effect (not every such curve was filed as active); inconclusive means small, poorly fitted or top-dose-only effect, or another doubt; inactive means no such curve, though single readings can be large or run the other way. This is a selection; strong and weak results do not stand in their true shares. A structure can be active in one record and inactive in another.
target: 15-hydroxyprostaglandin dehydrogenase [NAD(+)] (Homo sapiens) (UniProt P15428); assay: qHTS Assay for Inhibitors of HPGD (15-Hydroxyprostaglandin Dehydrogenase); details: purified HPGD, NADH fluorescence kinetic, PGE2 substrate; activity change, negative = inhibition: stronger effect = lower value
Sequence of UniProt P15428 (P15428 whole entry, looked up): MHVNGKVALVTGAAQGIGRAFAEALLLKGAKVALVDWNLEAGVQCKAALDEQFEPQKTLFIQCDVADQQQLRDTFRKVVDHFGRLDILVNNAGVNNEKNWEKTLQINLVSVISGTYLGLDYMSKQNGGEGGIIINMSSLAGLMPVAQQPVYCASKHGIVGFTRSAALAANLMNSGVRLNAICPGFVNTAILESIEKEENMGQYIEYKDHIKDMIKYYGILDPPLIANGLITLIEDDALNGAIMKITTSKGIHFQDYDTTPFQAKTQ
How it was run: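 20 nM HPGD preincubated 15 min at room temperature with compound in 50 mM Tris-HCl pH 8, 0.01% Tween 20. Started with 1 mM NAD+ and 30 uM prostaglandin E2; NADH fluorescence (360/450 nm) read 5 times over 30-s intervals, last minus first.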
On the % scale 0 is the no-effect control and ±100 the full control effect; potency means the concentration at half of the fitted maximal effect.

Row | Structure (SMILES) | activity change, negative = inhibition | Potency
1 | CCCCCCCCCCCCOS(=O)(=O)O | inactive: -2.39% | 
2 | O=C(CCn1nnc(-c2cccs2)n1)N1CCc2ccccc2C1 |  | active: 15.8 µM
3 | Cc1ccccc1/C(N)=N/OC(=O)N1c2ccccc2Sc2ccccc21 |  | active: 17.8 µM
4 | O=C(/C=C/c1ccco1)NC(=S)Nc1cccc([N+](=O)[O-])c1 |  | active: 17.8 µM
5 | Cc1cc(O)ccc1Nc1nc(-c2sc(N)nc2C)cs1 |  | active: 15.8 µM
6 | CCOC(=O)c1c(CN2CCCCC2)oc2ccc(OC)cc12 | inactive: -18.2% | 
7 | O=C(O)c1ccccc1Nc1ccccc1 | inactive: -20% | 
8 | O=C(c1ccc(CNc2c(N3CCCC3)c(=O)c2=O)cc1)N1CCc2ccccc2C1 |  | active: 3.55 µM
9 | COc1ccc(N=Cc2nc(-c3ccccc3)oc2OC(=O)c2ccccc2)cc1 |  | active: 22.4 µM
10 | O=C(O)c1cc(O)c2c(c1)C(=O)c1cc(O)cc(O)c1C2=O |  | active: 14.1 µM
11 | Cc1ccc(C(=O)N/C(=C\C=C\c2ccccc2)C(=O)NCc2ccco2)cc1 | inactive: -17.2% | 
12 | Cc1ccc(C(=O)NCc2ccc(Cl)cc2)o1 |  | active: 14.1 µM
13 | Cn1c(N)cc(=O)n(Cc2ccccc2)c1=O | inactive: -7.02% | 
14 | Clc1ccc(-c2cc3ccccc3[nH]2)cc1 | inactive: 48.7% | 
15 | Cc1ccc(OCc2nc(-c3ccccn3)no2)c(Br)c1 |  | active: 17.8 µM
16 | O=C1Nc2ccc(I)cc2/C1=C/c1cc(Br)c(O)c(Br)c1 |  | active: 7.94 µM and active: 3.55 µM
17 | CCCCSc1nnc(CSc2nc3nc(C)cc(C)n3n2)o1 |  | active: 25.1 µM
18 | Cn1nnnc1SCC1=C(C(=O)O)N2C(=O)[C@@H](NC(=O)[C@@H](O)c3ccccc3)[C@@H]2SC1 | inactive: -15.3% | 
19 | Cc1cccc(Cn2cnc3c(nnn3Cc3ccc(Cl)cc3)c2=O)c1 |  | active: 12.6 µM
20 | O=C(N/C(=C/c1ccc(Br)cc1)c1nc2ccccc2[nH]1)c1ccco1 | inactive: -22% | 
21 | O=C(c1ccc(-n2cnnn2)cc1)N1CCCCC1 |  | active: 15.8 µM
22 | COC(=O)Cc1c(C)c2ccc(OC(=O)c3ccco3)cc2oc1=O | inactive: 120% | 
23 | COc1cccc(/C=N/n2c(N)c(S(=O)(=O)c3cccs3)c3nc4ccccc4nc32)c1OC | inactive: 147% | 

Row | Structure (SMILES) | activity change, negative = inhibition | Potency
24 | CC(=O)c1cc2c(cc1NC(=O)CN1CCC(Cc3ccccc3)CC1)OCO2 | inactive: 100% | 
25 | O=C(O)Cc1cc(I)c(Oc2ccc(O)c(I)c2)c(I)c1 | inactive: -20.9% | 
26 | O=C(N/N=C/C(Cl)=C\c1ccccc1)c1cnccn1 | inactive: -7% | 
27 | O=C(NC1CC1)c1ccc(F)cc1Cl |  | active: 20 µM
28 | COc1ccccc1NC(=O)c1sc2ncn(Cc3cccc4ccccc34)c(=O)c2c1C | inactive: 275% | 
29 | CN1CCC[C@H]1c1cccnc1 | inactive: -3.18% and inactive: 6.49% and inactive: -17.6% | 
30 | CC(Cc1ccccc1)C(=O)N(C)Cc1ccccc1 (centres undefined) | inactive: -12.5% | 
31 | CN(C)c1ccc(/C=C2\C(=O)Nc3ccccc32)cc1 | inactive: -22.9% | 
32 | COc1ccc(-c2cc(C(=O)N/N=C/c3ccc4c(c3)OCO4)c3ccccc3n2)c(OC)c1 | inactive: 55.2% | 
33 | C[C@H]1c2cccc(O)c2C(O)=C2C(=O)[C@]3(O)C(O)=C(C(N)=O)C(=O)[C@@H](N(C)C)[C@@H]3[C@@H](O)[C@@H]21 | inactive: -18.1% | 
34 | O=C(c1cc2nc(C3CC3)cc(C(F)F)n2n1)N1CCOCC1 |  | active: 31.6 µM
35 | COc1ccc(S(=O)(=O)N(CCCN2CCCC2=O)Cc2cc3c(C)ccc(C)c3[nH]c2=O)cc1 | inactive: 85.8% | 
36 | COc1cccc(-n2c(SCC(=O)OC(C)C)nnc2-c2cccnc2)c1 |  | active: 22.4 µM
37 | COc1ccc(Br)cc1C(=O)Nc1ccc(N2CCN(S(C)(=O)=O)CC2)cc1 | inactive: 36.3% | 
38 | C#CCn1c(=NC(=O)c2ccc(Cl)s2)sc2cccc(OC)c21 | inactive: 148% | 
39 | COC(=O)c1sc2ccccc2c1NC(=O)c1ccc(S(=O)(=O)N2CC(C)CC(C)C2)cc1 (centres undefined) | inactive: 788% | 
40 | COC(=O)CNC(=O)C1(C)C=CCN1C(=O)c1ccccc1 (centres undefined) | inactive: -15.2% | 
41 | COc1ccc(S(=O)(=O)N(CCCN2CCCC2=O)Cc2cc3cc(C)c(C)cc3[nH]c2=O)cc1 | inactive: 44.6% | 
42 | O=C(CSc1ccc(-c2ccc(F)cc2)nn1)N1CCCCC1 |  | active: 15.8 µM
43 | CC1CCCN(c2ccc(C(=O)OCn3nnc4ccccc4c3=O)cc2[N+](=O)[O-])C1 (centres undefined) |  | active: 15.8 µM
44 | Cc1cc(-c2ccc(Cl)cc2)c(C#N)c(N)n1 | inactive: 43.3% | 
45 | COc1ccc2c(c1)C(=O)[C@H](O)[C@@H](c1ccc(OC)c(Br)c1)O2 | inactive: -13.4% | 
46 | N[C@H](Cc1cc(I)c(Oc2ccc(O)c(I)c2)c(I)c1)C(=O)O | inactive: -3.02% | 

Row | Structure (SMILES) | activity change, negative = inhibition | Potency
47 | C[C@H]1[C@@H](O)[C@@H](C)\C=C/C=C\C=C/C=C\C=C/C=C\C=C/[C@@H](O[C@H]2O[C@@H](C)[C@@H](O)[C@@H](N)[C@@H]2O)C[C@@H]2O[C@](O)(C[C@@H](O)C[C@@H](O)[C@@H](O)CC[C@@H](O)C[C@@H](O)CC(=O)O[C@H]1C)C[C@@H](O)[C@H]2C(=O)O (stereo in doubt) | inactive: -4.08% | 
48 | COC1=CC(=O)C[C@@H](C)[C@]12Oc1c(Cl)c(OC)cc(OC)c1C2=O | inactive: -17.2% | 
49 | COc1ccc(Br)c(C(=O)NCCC(C)C)c1 |  | active: 12.6 µM
50 | O=C(Nc1ccccn1)c1ccc([N+](=O)[O-])o1 | inactive: 142% | 
51 | COc1ccccc1N(CC(O)Cn1c2ccccc2c2ccccc21)S(=O)(=O)c1ccccc1 (centres undefined) | inactive: 890% | 
52 | O=c1[nH]c(C(F)(F)F)nc2c1nnn2Cc1ccccc1F |  | active: 17.8 µM
53 | O=C(O)CCCCCCCCCC(=O)c1cccs1 |  | active: 15.8 µM
54 | Cc1cccc(NC(=O)/C(C#N)=C/c2cn(CC(=O)NCc3ccco3)c3ccccc23)c1C | inactive: 48.5% | 
55 | O=C(N/N=C/C(Br)=C/c1ccccc1)c1n[nH]c2c1CCC2 | inactive: -17.9% | 
56 | CCOC(=O)c1oc2ccccc2c1NC(=O)c1ccc2c(c1)OCO2 | inactive: 75.1% | 
57 | CCOC(=O)C(C)Oc1cccc2c(=O)n(CC(=O)NCc3ccc4c(c3)OCO4)ccc12 (centres undefined) | inactive: 45.5% | 
58 | CN1CCN2c3ccccc3Cc3ccccc3C2C1 (centres undefined) | inactive: -13.1% and inactive: -5.99% | 
59 | CC(C)NNC(=O)c1ccncc1 | inactive: -20% | 
60 | CCOC(=O)c1ccc(N2Cc3ccccc3C2=NC(=O)c2cccs2)cc1 | inactive: 278% | 
61 | CC(=O)N=c1sc(S(N)(=O)=O)nn1C | inactive: -16% | 
62 | O=C1c2cccc(O)c2C(=O)c2c(O)cccc21 | inactive: -0.0357% and inactive: -15.3% | 
63 | CCOC(=O)/C=c1\s/c(=C\c2ccc(C#N)cc2)c(=O)n1CC(=O)NCc1ccco1 | inactive: 38.2% | 
64 | COc1ccc(-c2cc(=O)c3c(OC)c(OC)c(OC)c(OC)c3o2)cc1OC | inactive: -29.8% | 
65 | CN(Cc1cnc2nc(N)nc(N)c2n1)c1ccc(C(=O)NC(CCC(=O)O)C(=O)O)cc1 (centres undefined) | inactive: -20.3% | 
66 | COc1ccccc1N(O)C1CC(=O)N(c2ccc(Br)cc2)C1=O (centres undefined) |  | active: 28.2 µM
67 | C=CCn1c(=NC(=O)c2ccco2)sc2cc(C(=O)OC)ccc21 | inactive: 194% | 
68 | CCCCC/C=C\C/C=C\CCCCCCCC(=O)O | inactive: -11.6% | 
69 | O=C(O)c1cc2cc(F)ccc2[nH]1 | inactive: -26.9% | 

Row | Structure (SMILES) | activity change, negative = inhibition | Potency
70 | COc1ccccc1/C=C1\SC(=O)N(CCC(=O)NNC(=O)c2ccccc2Cl)C1=O | inactive: 48.1% | 
71 | CN(C(=O)CCCOc1ccc2[nH]c(=O)ccc2c1)C1CCCCC1 | inactive: -22.4% | 
72 | Cc1ccsc1/C=C1/SC(N2CCOCC2)=NC1=O | inactive: -13.8% | 
73 | COc1ccc(/C=C(/NC(=O)c2ccccc2)C(=O)N/N=C/c2sccc2C)cc1 | inactive: -26% | 
74 | COc1ccc(Br)c2oc(SC)cc(=O)c12 | inactive: -28.6% | 
75 | Cc1ccc(C)c2[nH]c(=O)c(CN(CC3CCCO3)S(=O)(=O)c3ccc4c(c3)OCCO4)cc12 (centres undefined) | inactive: 55.3% | 
76 | Cc1ccc(CNC(=O)[C@H](C)[C@@H]2C[C@@]2(C)[C@@H](NC(=O)OCc2ccccc2)c2ccccc2)o1 | inactive: -19.3% | 
77 | Cc1cc2nc(-c3cccc(NC(=O)c4ccc(Br)o4)c3)oc2cc1C | inactive: 33% | 
78 | O=C(c1cc2ccccc2o1)N1CCCCCC1 |  | active: 7.94 µM
79 | O=c1cc(-c2ccccc2Cl)oc2c(Br)ccc(O)c12 | inactive: -27.9% | 
80 | CCOc1ccc2nc(NC(=O)c3ccc(OC)c(S(=O)(=O)N4CCOCC4)c3)sc2c1 | inactive: 569% | 
81 | C[C@@H](C(=O)O)c1ccc(C(=O)c2cccs2)cc1 | inactive: -17.5% | 
82 | N=C(N)SCc1nc2ccccc2c(=O)n1-c1ccccc1 | inactive: -24.9% | 
83 | O=C(NCc1ccccc1)c1cc2ccccc2o1 |  | active: 17.8 µM
84 | Cc1ccc(S(=O)(=O)N(CCCN2CCCC2=O)Cc2cc3c(C)ccc(C)c3[nH]c2=O)cc1 | inactive: 30.8% | 
85 | COc1ccc(-c2cc(=O)c3cc(F)ccc3[nH]2)cc1 | inactive: -15.6% | 
86 | CCCNC(=O)C1CCN(S(=O)(=O)c2c(C)noc2/C=C\c2ccc(OC)cc2)CC1 | inactive: 130% | 
87 | Cc1ccc(-c2cnn(-c3cccc([N+](=O)[O-])c3)c2N)cc1 |  | active: 35.5 µM
88 | Oc1cc2c(cc1O)C(c1ccccc1)CNCC2 (centres undefined) | inactive: -13.7% | 
89 | CC(=O)OCC1=C(C(=O)O)N2C(=O)[C@@H](NC(=O)Cc3cccs3)[C@@H]2SC1 | inactive: -7.04% | 

From PubChem BioAssay AID894 (National Center for Advancing Translational Sciences (NCATS), 2007)
